Reference: PubChem BioAssay AID1347120 (National Center for Advancing Translational Sciences (NCATS), 2019)
The campaign covered roughly 390,000 compounds. About 930 (0.24%) were called active. Inconclusive results, whose numbers are uncertain, are shown with a selection of clear calls. Calls come from the whole dose curve; as a rule, active = well fitted activation curve with a large enough effect; inconclusive = small, poorly fitted or top-dose-only effect; inactive = no such curve, though single readings can be large or run the other way. Potencies of inconclusive entries are doubtful fits and often do not repeat.
Potency is the fitted concentration of half-maximal effect; tags give direction and shape of the fitted curve.

Experiment: qHTS for Suppressors of FUS Proteinopathy: Primary screen using FUS-linked yeast assay; note: nearly all actives have a fitted effect of over 55% in size;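 for growth rescue (activation): plate controls were DMSO vehicle for no effect and reference control for full effect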
Settings: S. cerevisiae FUS-expressing, OD600, 24 h; Potency: growth rescue; growth rescue (activation): at 76.6 µM (top of the series)
Summary of the method: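 Quantitative HTS measuring growth restoration of FUS-toxic yeast. Galactose-induced cells (OD 0.005) were exposed 24hr at 30C to compounds at several concentrations, then absorbance at 600 nm was recorded.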
With `Cc1cc(CN(C)C(=O)CC2C(=O)NCCN2Cc2ccc(-c3ccccc3)cc2)on1` (configuration not stated) the Potency was inconclusive: 39.8 µM [activator, partial curve, poor fit]. With `O=C(O[C@H]1[C@H](Cc2ccccc2)NS(=O)(=O)[C@H]2C[C@@H]3C=C[C@]12O3)c1ccc([N+](=O)[O-])cc1` the Potency was inconclusive: 31.6 µM [activator, single point]. For `COCC(=O)N[C@H]1C[C@@H]2O[C@H](CO)CC[C@@H]2O[C@@H]1CCc1ccc(-c2ccccc2)cc1`, the “growth rescue (activation)” value was inactive: 23.1%. For `CCN1C(=O)[C@@H]2[C@@H](c3ccc(-c4cccc(Cl)c4)cc3)N3CCC[C@@]3(C(=O)OC)[C@@H]2C1=O`, the Potency was inconclusive: 31.6 µM [activator, single point]. With `O=C(CN(C(=O)OCC1c2ccccc2-c2ccccc21)[C@@H](Cc1ccccc1)C(=O)O)OCc1ccc(C(=O)NCc2ccccc2)cc1` the Potency was active: 25.1 µM. With `O=C1[C@H]2[C@@H](c3ccccc3)N[C@]3(CCCN(Cc4ccc(Br)cc4)C3=O)[C@H]2C(=O)N1Cc1ccccc1` the Potency was inconclusive: 17.8 µM [activator, single point]. For `CC(=O)c1cccc(-c2cnc3c(NC=O)cc(-c4ccc(N(C)C)cc4)cn23)c1`, the Potency was inconclusive: 31.6 µM [activator, single point]. For `CCC(=O)N1N=C(c2c(O)n(C)c(=O)n(C)c2=O)CC1c1ccccc1` (configuration not stated), the “growth rescue (activation)” value was inactive: 32.2%. In the case of `COC(=O)c1ccc(C2/C(=C(\O)c3ccc(OC)c(C)c3)C(=O)C(=O)N2c2cc(C)on2)cc1` (configuration not stated), the Potency is reported as inconclusive: 10 µM [activator, partial curve]. In the case of `Cc1cc(=O)oc2c1c(C)nn2-c1cccc(Cl)c1`, the growth rescue (activation) is reported as inconclusive: -52.2% [activator]. For `Cc1cc(=O)oc2cc(NC(=O)c3ccc(OC(F)F)cc3)ccc12`, the “growth rescue (activation)” value was inactive: 3.76%. With `CSc1ccc(Cc2ccc(Cl)cc2Cl)nn1` the “growth rescue (activation)” value was inactive: 2.23%. With `CCCSC1=NC2(CCN(C(=O)NC3CCCCC3)CC2)N=C1c1ccc(OC)cc1` the Potency was inconclusive: 44.7 µM [activator, single point]. In the case of `COC(=O)[C@@]12C[C@@H](CC(=O)NCc3cccc(C(F)(F)F)c3)C(=O)N(Cc3ccccc3)C1=CCC(C)(C)C2`, the Potency is reported as inconclusive: 4.47 µM [activator, full curve, poor fit]. For `O=C(NCc1ccccc1Cl)c1ccc2c(c1)ncn2-c1cccc(F)c1`, the Potency was inconclusive: 25.1 µM [activator, single point]. For `O=C(NCc1ccccc1C(F)(F)F)C1CC(c2ccccc2C(F)(F)F)=NO1` (configuration not stated), the “growth rescue (activation)” value was inactive: 23.3%. For `COc1cccc(-n2ccnc2SCC(=O)Nc2cccc3ccccc23)c1`, the Potency was inconclusive: 50.1 µM [activator, single point]. In the case of `COc1ccc2[nH]c3c(c2c1)CCN1C(=O)C(CC(=O)NCc2ccc(OC)c(OC)c2)C[C@H](C(=O)N2CCCCC2)[C@@]31CCc1ccccc1` (some centres not stated), the Potency is reported as inconclusive: 14.1 µM [activator, partial curve, poor fit]. With `COc1ccc(C(C)NC(=O)CN(c2cc(OC)ccc2OC)S(=O)(=O)c2ccccc2)cc1` (configuration not stated) the Potency was inconclusive: 39.8 µM [activator, single point]. For `Cc1ccc(CNC(=O)C2CCCN(c3nc4ccccc4n4cccc34)C2)cc1` (configuration not stated), the Potency was inconclusive: 35.5 µM [activator, single point]. In the case of `O=C(/C=C/c1ccco1)Nc1ccc(C(=O)N2CCOCC2)cc1`, the Potency is reported as inconclusive: 8.91 µM [activator, partial curve]. With `CN(C)c1ccc(/C=N/NC(=O)C(O)(c2ccccc2)c2ccccc2)o1` the Potency was inconclusive: 25.1 µM [activator, single point]. In the case of `Cc1cc(C)cc(OC(=O)c2cccnc2)c1`, the “growth rescue (activation)” value is reported as inactive: 22.1%. With `Cn1c(=O)c2c(ncn2CCO)n(C)c1=O` the “growth rescue (activation)” value was inactive: -13.4%. With `CCN(c1ccccc1)S(=O)(=O)c1ccc(OC)c(NC(=O)C2CC(=O)N(Cc3ccccc3)C2)c1` (configuration not stated) the Potency was inconclusive: 39.8 µM [activator, single point]. For `CCc1ccc(NCc2cc3cc4c(cc3n(CC(=O)Nc3ccc(OC)cc3)c2=O)OCO4)cc1`, the Potency was inconclusive: 17.8 µM [activator, partial curve, poor fit]. With `CC(C)(C)OC(=O)[C@H](Cc1ccccc1)NC(=O)c1[nH]cnc1C(=O)Nc1ccc(Cl)cc1` the Potency was inconclusive: 2 µM [activator, full curve]. With `Cc1ccc(N=Nc2ccc(O)c3ncccc23)cc1C` the “growth rescue (activation)” value was inactive: -9.47%. For `COc1ccc(CCn2c(C)cc(C(=O)CSc3nc(N)cc(=O)[nH]3)c2C)cc1`, the Potency was inconclusive: 15.8 µM [activator, partial curve]. For `C[C@@H]1CN([C@@H](C)CO)C(=O)c2cccc(NC(=O)Nc3cccc4ccccc34)c2O[C@H]1CN(C)S(=O)(=O)c1ccc(Cl)cc1`, the Potency was inconclusive: 17.8 µM [activator, single point]. With `C=CC[C@@H](CC(=O)NCCO)C(=O)NC[C@@H](OC(=O)[C@H](CC=C)CC(=O)OC(C)(C)C)c1ccccc1` the Potency was inconclusive: 31.6 µM [activator, single point]. With `COc1ccc(S[C@]2(C(=O)N3CCN(C(C)=O)CC3)CC(=O)N(C(=O)Nc3ccc(C)c(Cl)c3)[C@@H]2c2ccc(OC)cc2)cc1` the Potency was inconclusive: 50.1 µM [activator, single point]. For `O=[N+]([O-])c1cnc2ccccc2c1Sc1ccccc1`, the “growth rescue (activation)” value was inactive: 6.76%. With `COc1ccc(-c2c(C#N)c(SCC(=O)Nc3ccc(C)c(C)c3)nc(C)c2C(=O)Nc2ccccc2)cc1OC` the Potency was inconclusive: 15.8 µM [activator, partial curve]. In the case of `COc1ccc(C)cc1NS(=O)(=O)c1ccc2c(c1)CCCN2C(C)=O`, the “growth rescue (activation)” value is reported as inactive: 23.4%. With `CC(C)Cc1nnc(NC(=O)c2cc(-c3ccncc3)nc3ccccc23)s1` the Potency was inconclusive: 35.5 µM [activator, partial curve, poor fit]. In the case of `CCOC(=O)[C@]12CCC=C1N(Cc1cccc3ccccc13)C(=O)[C@H](CC(=O)NCCC(C)C)C2`, the Potency is reported as inconclusive: 15.8 µM [activator, partial curve, poor fit].
